Here are results for 45 molecules from paper PMC4336329 (PLoS ONE, 2015).

Among all 310,000 compounds or so, about 2,200 (0.71%) showed an effect of 50% or more. The effect is printed as a negative number. This is one part of the list.

Sequence of human ether-à-go-go-related gene (hERG) potassium channel (Q12809 whole entry, looked up): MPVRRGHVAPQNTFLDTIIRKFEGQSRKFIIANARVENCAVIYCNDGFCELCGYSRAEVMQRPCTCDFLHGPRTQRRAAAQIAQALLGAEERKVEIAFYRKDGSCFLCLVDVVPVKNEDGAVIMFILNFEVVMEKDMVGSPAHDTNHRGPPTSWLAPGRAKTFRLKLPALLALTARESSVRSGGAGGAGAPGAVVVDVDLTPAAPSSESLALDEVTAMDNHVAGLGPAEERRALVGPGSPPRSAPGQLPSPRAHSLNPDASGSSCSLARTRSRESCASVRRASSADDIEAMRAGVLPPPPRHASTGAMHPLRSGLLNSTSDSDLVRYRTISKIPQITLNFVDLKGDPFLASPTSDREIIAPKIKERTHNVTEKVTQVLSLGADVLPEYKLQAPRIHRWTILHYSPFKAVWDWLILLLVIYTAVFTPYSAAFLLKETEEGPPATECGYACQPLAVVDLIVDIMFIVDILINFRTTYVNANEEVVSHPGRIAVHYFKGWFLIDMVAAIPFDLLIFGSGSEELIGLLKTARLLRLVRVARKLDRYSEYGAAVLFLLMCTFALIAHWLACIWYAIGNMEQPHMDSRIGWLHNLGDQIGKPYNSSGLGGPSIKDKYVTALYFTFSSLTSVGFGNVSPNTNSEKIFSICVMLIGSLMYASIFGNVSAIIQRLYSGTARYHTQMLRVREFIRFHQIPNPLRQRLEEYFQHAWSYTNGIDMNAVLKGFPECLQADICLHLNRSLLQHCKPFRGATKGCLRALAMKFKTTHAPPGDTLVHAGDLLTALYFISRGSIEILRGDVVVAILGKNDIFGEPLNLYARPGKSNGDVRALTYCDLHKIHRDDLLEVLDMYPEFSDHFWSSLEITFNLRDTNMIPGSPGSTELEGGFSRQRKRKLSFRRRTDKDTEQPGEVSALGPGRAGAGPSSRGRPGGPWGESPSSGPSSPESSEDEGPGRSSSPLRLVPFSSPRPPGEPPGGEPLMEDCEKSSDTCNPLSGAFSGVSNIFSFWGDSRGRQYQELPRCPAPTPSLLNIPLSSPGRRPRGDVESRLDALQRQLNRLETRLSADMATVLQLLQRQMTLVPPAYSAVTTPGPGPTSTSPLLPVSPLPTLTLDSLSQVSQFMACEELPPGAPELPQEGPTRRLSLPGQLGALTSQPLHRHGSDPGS

The experiment addresses human ether-à-go-go-related gene (hERG) potassium channel (human, UniProt Q12809). The experiment is described as follows: primary screen, population patch clamp on CHO cells stably expressing hERG.
With `O=C(NN1C(=O)c2ccccc2NC1c1ccccn1)c1ccc([N+](=O)[O-])cc1` (stereo not drawn), the “hERG current change (%, negative = inhibition) at 1uM” value was 1.45%.

Turning to `Cc1[nH]n(-c2ccccc2)c(=O)c1C=Nc1cccc2cccnc12`, the “hERG current change (%, negative = inhibition) at 1uM” value is -10.3%.

In the case of `CCc1ccccc1NC1c2ccccc2C(=O)N1c1cccnc1` (stereo not drawn), the “hERG current change (%, negative = inhibition) at 1uM” value was 5.29%.

With `CC(C)C[C@H](NC(=O)c1nc[nH]c1C(=O)N[C@@H](CC(C)C)C(=O)OCc1ccccc1)C(=O)OCc1ccccc1`, the “hERG current change (%, negative = inhibition) at 1uM” value is given as 9.56%.

As to `CC(C)(C)S(=O)(=O)c1ccccc1-c1noc(-c2ccccc2)c1C(N)=O`, the “hERG current change (%, negative = inhibition) at 1uM” value was determined as 13.8%.

As to `CCCN(CC1CC1)C(=S)Nc1ccc(Oc2ccccc2)cc1`, the “hERG current change (%, negative = inhibition) at 1uM” value stood at 2.21%.

As for `O=S(=O)(c1ccccc1)N(CC(O)CN1CCCC1)c1ccccc1` (stereo not drawn), the “hERG current change (%, negative = inhibition) at 1uM” value is on record as 3.65%.

With `O=C(COc1cccc2cccnc12)NCc1cccs1`, the “hERG current change (%, negative = inhibition) at 1uM” value was determined as 17.7%.

In the case of `CC(C)[C@H](NC(=O)c1ccccc1)C(=O)OCc1nc2scc(-c3ccccc3)c2c(=O)[nH]1`, the “hERG current change (%, negative = inhibition) at 1uM” value was found to be 3.94%.

In the case of `COc1ccc(Nc2cc(C(=O)NCCCN3CCN(C)CC3)c3ccccc3n2)c(OC)c1`, the “hERG current change (%, negative = inhibition) at 1uM” value was 11.8%.

`CCOc1ccc(CN2CCNC(=O)C2CC(=O)NCCc2cnccn2)cc1` (stereo not drawn): the “hERG current change (%, negative = inhibition) at 1uM” value is listed as 6.33%.

Turning to `c1cnn(-c2nc(N3CCOCC3)nc(N3CCOCC3)n2)c1`, the “hERG current change (%, negative = inhibition) at 1uM” value is 7.43%.

Regarding `Cc1oc(-c2ccc(Cl)cc2)nc1CN1CCC(C(=O)NCCCN2CCCC(C)C2)CC1` (stereo not drawn), the “hERG current change (%, negative = inhibition) at 1uM” value is recorded as 10.5%.

In the case of `O=C(Nc1nc2ccccc2[nH]1)Nc1ccccc1F`, the “hERG current change (%, negative = inhibition) at 1uM” value came to 15.4%.

As for `CCc1ccc(-n2c(SCC(=O)N3Cc4ccccc4CC3C(=O)O)nnc2-c2ccncc2)cc1` (stereo not drawn), the “hERG current change (%, negative = inhibition) at 1uM” value is on record as 9.53%.

`O=C(CCc1ccccc1)N=C1SC2CS(=O)(=O)CC2N1c1cccc(F)c1` (stereo not drawn): the “hERG current change (%, negative = inhibition) at 1uM” value is given as -2.69%.

For the molecule `Cc1ccc(SCC(=O)Nc2ccc(-c3nnc(-c4ccco4)o3)cc2)cc1`, the “hERG current change (%, negative = inhibition) at 1uM” value is given as 9.25%.

In the case of `N#C/C(=C/c1ccccc1[N+](=O)[O-])C(=O)NCc1ccco1`, the “hERG current change (%, negative = inhibition) at 1uM” value is on record as -3.2%.

As for `Cc1cc(NC(=O)CSc2nc3ccccc3n2CC(=O)N2CCCCC2)no1`, the “hERG current change (%, negative = inhibition) at 1uM” value is recorded as -5.08%.

Regarding `Cc1nnc2sc(COc3ccccc3)nn2c1=O`, the “hERG current change (%, negative = inhibition) at 1uM” value stood at 14.2%.

Turning to `Cc1ccc(NC(=O)/C=C\C(=O)NCC(=O)O)cc1`, the “hERG current change (%, negative = inhibition) at 1uM” value is listed as 8.68%.

As to `CCOc1ccccc1OCC(=O)Nc1cc(S(=O)(=O)N2CCCCC2)ccc1N1CCN(CC)CC1`, the “hERG current change (%, negative = inhibition) at 1uM” value is reported as -18.9%.

On to `Cc1ccc(NC(=S)N2CCN(S(=O)(=O)c3ccc(C)cc3)CC2)cc1`, for which the “hERG current change (%, negative = inhibition) at 1uM” value is listed as 12.9%.

With `CCC(C(=O)n1cccc1C#N)c1ccccc1C` (stereo not drawn), the “hERG current change (%, negative = inhibition) at 1uM” value worked out at 13.1%.

For the molecule `OCCN(Cc1ccccc1)Cc1ccc(Cl)cc1Cl`, the “hERG current change (%, negative = inhibition) at 1uM” value is reported as -2.72%.

Take `Cc1cc(=O)n(C)c(=O)n1CCCCCCN1CCCC1.O=C(O)C(=O)O`: the “hERG current change (%, negative = inhibition) at 1uM” value came out at 10.7%.

Consider `Cc1c(NC(=O)C(C)OC(=O)c2cc(Cl)ccc2O)c(=O)n(-c2ccccc2)n1C` (stereo not drawn), for which the “hERG current change (%, negative = inhibition) at 1uM” value was 12.4%.

As for `NC(=O)c1cc(S(=O)(=O)Nc2cccc(F)c2)co1`, the “hERG current change (%, negative = inhibition) at 1uM” value was found to be 8.52%.

As for `O=C(CCCN=C1NS(=O)(=O)c2ccccc21)OCC(=O)c1ccccc1Cl`, the “hERG current change (%, negative = inhibition) at 1uM” value was -1%.

With `Cc1noc(C)c1CNCc1ccccc1.O=C(O)C(=O)O`, the “hERG current change (%, negative = inhibition) at 1uM” value was 16%.

In the case of `CCCCN(C(=O)c1cccc(-n2cccc2)c1)c1c(N)n(CCC)c(=O)[nH]c1=O`, the “hERG current change (%, negative = inhibition) at 1uM” value came to 6.47%.

In the case of `Cc1cc(Br)c2[nH]cc(CCNC(=O)c3ccco3)c2c1`, the “hERG current change (%, negative = inhibition) at 1uM” value was determined as 7.84%.

As for `O=C(CSc1nc2ccccc2[nH]1)NC1CCS(=O)(=O)C1` (stereo not drawn), the “hERG current change (%, negative = inhibition) at 1uM” value was 6.46%.

For `CCOC(=O)C(O)(c1ccc(N(C)C(=O)c2ccc(Cl)c(Cl)c2)cc1)C(F)(F)F` (stereo not drawn), the “hERG current change (%, negative = inhibition) at 1uM” value was 0.321%.

For the molecule `Cc1ccc(S(=O)(=O)N2CCN(S(=O)(=O)c3ccc(C)cc3)C2c2ccccc2)cc1`, the “hERG current change (%, negative = inhibition) at 1uM” value came out at 3.23%.

In the case of `COC(=O)c1ccc(C(=S)N2CCOCC2)cc1`, the “hERG current change (%, negative = inhibition) at 1uM” value worked out at 3.15%.

Consider `Cc1ccc(S(=O)(=O)N2CN(Cc3ccco3)c3nc4ccccc4nc32)cc1C`, for which the “hERG current change (%, negative = inhibition) at 1uM” value was 11.5%.

On to `COC(=O)c1ccc(C(=O)OCc2nc3cc4ccccc4cc3[nH]2)cc1`, for which the “hERG current change (%, negative = inhibition) at 1uM” value worked out at 11%.

For the molecule `COc1ccc(C(=O)Nc2ccc(Nc3ccccc3)cc2)cc1OC`, the “hERG current change (%, negative = inhibition) at 1uM” value is 14.7%.

With `CCc1ccc(N(CC(=O)N2CCN(Cc3ccccc3)CC2)S(C)(=O)=O)cc1`, the “hERG current change (%, negative = inhibition) at 1uM” value was determined as 4.79%.

With `O=C(NCC1CCCO1)c1ccc(CNS(=O)(=O)c2cccc(Cl)c2)cc1` (stereo not drawn), the “hERG current change (%, negative = inhibition) at 1uM” value was found to be 32.1%.

On to `Cc1cc(Br)ccc1OCC(=O)NNC(=O)Cc1ccccc1`, for which the “hERG current change (%, negative = inhibition) at 1uM” value was determined as 10.4%.

As to `CCCCCC(O)(CCCCC)C(=O)NNc1ccccc1`, the “hERG current change (%, negative = inhibition) at 1uM” value came out at 4.1%.

Consider `Cc1ccsc1/C=C/C(=O)O`, for which the “hERG current change (%, negative = inhibition) at 1uM” value is given as 1.08%.

`CC(C)CNC(=O)c1cccc(NC(=O)C2CCCO2)c1` (stereo not drawn): the “hERG current change (%, negative = inhibition) at 1uM” value came to 13.6%.
